Whole data set: some 2,900 compounds, median “NF-kB SEAP reporter activity, fold change vs agonist alone” near 0.99, cut for the highest 2% near 2.6. The list shows a part of the results.
Columns and labels:
RAW-Dual [1] = assay: NF-kB SEAP reporter activity, fold change vs agonist alone; cytotoxicity flag (confluency mask): not cytotoxic; higher = enhanced NF-kB activity
Summary of the method: (§1)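 Supernatant from RAW-Dual macrophages was read after 20 hours for IRF by QuantiLuc luminescence and for NF-κB by QuantiBlue absorbance at 620 nm. The cells (50,000 cells/well in DMEM, 384-well plates, 37 °C, 5% CO2) had received 50 nL of library stock by pin tool and, 1 h later, a PRR agonist. Reporter activity is expressed relative to agonist-alone wells as fold change, and wells were flagged cytotoxic if IncuCyte confluency was under 70% of agonist controls in both mask sets.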

RAW-Dual [2] = assay: NF-kB SEAP reporter activity, fold change vs agonist alone; higher = enhanced NF-kB activity
Summary of the method: as §1

RAW-Dual [3] = assay: NF-kB SEAP reporter activity, fold change vs agonist alone; cytotoxicity flag (confluency mask): cytotoxic (confluency <70% of control); higher = enhanced NF-kB activity
Summary of the method: as §1

[4] = agonist: ODN 1826 (TLR9) 0.5 ug/mL
[5] = agonist: Pam2CSK4 (TLR2/6) 0.1 ug/mL
[6] = agonist: Pam3CSK4 (TLR2/1) 0.1 ug/mL
[7] = library stock concentration (final ~1000-fold dilution): 10 mM, cytotoxicity flag (confluency mask): not cytotoxic, agonist: Imiquimod (TLR7) […]
[8] = library stock concentration (final ~1000-fold dilution): 10 mM, cytotoxicity flag (confluency mask): not cytotoxic, agonist: MPLA (TLR4) […]
[9] = library stock concentration (final ~1000-fold dilution): 10 mM water, cytotoxicity flag (confluency mask): not cytotoxic, agonist: Imiquimod (TLR7) […]
[10] = library stock concentration (final ~1000-fold dilution): 10 mM water, cytotoxicity flag (confluency mask): not cytotoxic, agonist: MPLA (TLR4) […]
[11] = library stock concentration (final ~1000-fold dilution): 2 mM, cytotoxicity flag (confluency mask): not cytotoxic, agonist: Imiquimod (TLR7) […]
[12] = library stock concentration (final ~1000-fold dilution): 2 mM, cytotoxicity flag (confluency mask): not cytotoxic, agonist: MPLA (TLR4) […]

COc1ccccc1C(=O)Nc1cc2c(cc1N1CCCC1)n(C)c(=O)n2C (library stock concentration (final ~1000-fold dilution): 10 mM)
NF-kB SEAP reporter activity (RAW-Dual [1]; agonist: LPS (TLR4) 0.1 ug/mL): 1.58
NF-kB SEAP reporter activity (RAW-Dual [1]; [4]): 1.36
NF-kB SEAP reporter activity (RAW-Dual [1]; [5]): 1.11
NF-kB SEAP reporter activity (RAW-Dual [1]; [6]): 1.05

COc1ccccc1C(=O)Nc1cc2c(cc1N1CCCC1)n(C)c(=O)n2C
NF-kB SEAP reporter activity (RAW-Dual [2]; [7]): 1.04
NF-kB SEAP reporter activity (RAW-Dual [2]; [8]): 1.34

CC(NC(=Nc1cccc2ncccc12)NC#N)c1ccccc1 (centres undefined)
NF-kB SEAP reporter activity (RAW-Dual [2]; [7]): 0.897
NF-kB SEAP reporter activity (RAW-Dual [2]; [8]): 1.12

CC(NC(=Nc1cccc2ncccc12)NC#N)c1ccccc1 (centres undefined) (library stock concentration (final ~1000-fold dilution): 10 mM)
NF-kB SEAP reporter activity (RAW-Dual [1]; agonist: LPS (TLR4) 0.1 ug/mL): 1.34
NF-kB SEAP reporter activity (RAW-Dual [1]; [4]): 1.07
NF-kB SEAP reporter activity (RAW-Dual [1]; [5]): 1.13
NF-kB SEAP reporter activity (RAW-Dual [1]; [6]): 1.29

CN1CCN(CC(=O)N2c3ccccc3C(=O)Nc3cccnc32)CC1.Cl.Cl
NF-kB SEAP reporter activity (RAW-Dual [2]; [9]): 0.949
NF-kB SEAP reporter activity (RAW-Dual [2]; [10]): 1.01

CN1CCN(CC(=O)N2c3ccccc3C(=O)Nc3cccnc32)CC1.Cl.Cl (library stock concentration (final ~1000-fold dilution): 10 mM water)
NF-kB SEAP reporter activity (RAW-Dual [1]; agonist: LPS (TLR4) 0.1 ug/mL): 1.25
NF-kB SEAP reporter activity (RAW-Dual [1]; [4]): 1.15
NF-kB SEAP reporter activity (RAW-Dual [1]; [5]): 1.16
NF-kB SEAP reporter activity (RAW-Dual [1]; [6]): 1.06

CN1CCN(Cc2ccc(NC(=O)Cc3ccc(Oc4cc(NC(=O)C5CC5)ncn4)cc3)cc2C(F)(F)F)CC1
NF-kB SEAP reporter activity (RAW-Dual [2]; library stock concentration (final ~1000-fold dilution): 10 mM, cytotoxicity flag (confluency mask): cytotoxic (confluency <70% of control), agonist: Imiquimod (TLR7) […]): 0.137
NF-kB SEAP reporter activity (RAW-Dual [2]; library stock concentration (final ~1000-fold dilution): 10 mM, cytotoxicity flag (confluency mask): cytotoxic (confluency <70% of control), agonist: MPLA (TLR4) […]): 0.26

CN1CCN(Cc2ccc(NC(=O)Cc3ccc(Oc4cc(NC(=O)C5CC5)ncn4)cc3)cc2C(F)(F)F)CC1 (library stock concentration (final ~1000-fold dilution): 10 mM)
NF-kB SEAP reporter activity (RAW-Dual [3]; agonist: LPS (TLR4) 0.1 ug/mL): 0.403
NF-kB SEAP reporter activity (RAW-Dual [3]; [4]): 0.176
NF-kB SEAP reporter activity (RAW-Dual [3]; [5]): 0.0834
NF-kB SEAP reporter activity (RAW-Dual [3]; [6]): 0.142

COc1cc(-c2cn(C)c(=O)c3cnccc23)cc(OC)c1CN(C)C
NF-kB SEAP reporter activity (RAW-Dual [2]; [7]): 1.22
NF-kB SEAP reporter activity (RAW-Dual [2]; [8]): 1.22

COc1cc(-c2cn(C)c(=O)c3cnccc23)cc(OC)c1CN(C)C (library stock concentration (final ~1000-fold dilution): 10 mM)
NF-kB SEAP reporter activity (RAW-Dual [1]; agonist: LPS (TLR4) 0.1 ug/mL): 1.17
NF-kB SEAP reporter activity (RAW-Dual [1]; [4]): 1.34
NF-kB SEAP reporter activity (RAW-Dual [1]; [5]): 0.935
NF-kB SEAP reporter activity (RAW-Dual [1]; [6]): 1.17

CN(C)CCC(c1ccc(Br)cc1)c1ccccn1.O=C(O)/C=C\C(=O)O (centres undefined)
NF-kB SEAP reporter activity (RAW-Dual [2]; [7]): 1.41
NF-kB SEAP reporter activity (RAW-Dual [2]; [8]): 1.14

CN(C)CCC(c1ccc(Br)cc1)c1ccccn1.O=C(O)/C=C\C(=O)O (centres undefined) (library stock concentration (final ~1000-fold dilution): 10 mM)
NF-kB SEAP reporter activity (RAW-Dual [1]; agonist: LPS (TLR4) 0.1 ug/mL): 1.04
NF-kB SEAP reporter activity (RAW-Dual [1]; [4]): 0.916
NF-kB SEAP reporter activity (RAW-Dual [1]; [5]): 1.09
NF-kB SEAP reporter activity (RAW-Dual [1]; [6]): 1.11

CC1=C(CC(=O)O)c2cc(F)ccc2/C1=C\c1ccc(S(C)=O)cc1 (centres undefined)
NF-kB SEAP reporter activity (RAW-Dual [2]; [7]): 1.12
NF-kB SEAP reporter activity (RAW-Dual [2]; [8]): 1.28

CC1=C(CC(=O)O)c2cc(F)ccc2/C1=C\c1ccc(S(C)=O)cc1 (centres undefined) (library stock concentration (final ~1000-fold dilution): 10 mM)
NF-kB SEAP reporter activity (RAW-Dual [1]; agonist: LPS (TLR4) 0.1 ug/mL): 1.36
NF-kB SEAP reporter activity (RAW-Dual [1]; [4]): 1.05
NF-kB SEAP reporter activity (RAW-Dual [1]; [5]): 1.04
NF-kB SEAP reporter activity (RAW-Dual [1]; [6]): 1.13

Cc1onc(-c2ccccc2)c1-c1ccc(S(N)(=O)=O)cc1 (library stock concentration (final ~1000-fold dilution): 10 mM)
NF-kB SEAP reporter activity (RAW-Dual [1]; agonist: LPS (TLR4) 0.1 ug/mL): 1.45
NF-kB SEAP reporter activity (RAW-Dual [1]; [4]): 0.984
NF-kB SEAP reporter activity (RAW-Dual [1]; [5]): 0.897
NF-kB SEAP reporter activity (RAW-Dual [1]; [6]): 1.12

Cc1onc(-c2ccccc2)c1-c1ccc(S(N)(=O)=O)cc1
NF-kB SEAP reporter activity (RAW-Dual [2]; [7]): 1.1
NF-kB SEAP reporter activity (RAW-Dual [2]; [8]): 1.23

N#Cc1ccc(C2CCc3cncn32)c(F)c1 (centres undefined) (library stock concentration (final ~1000-fold dilution): 10 mM)
NF-kB SEAP reporter activity (RAW-Dual [1]; agonist: LPS (TLR4) 0.1 ug/mL): 0.988
NF-kB SEAP reporter activity (RAW-Dual [1]; [4]): 1
NF-kB SEAP reporter activity (RAW-Dual [1]; [5]): 0.994
NF-kB SEAP reporter activity (RAW-Dual [1]; [6]): 1.22

N#Cc1ccc(C2CCc3cncn32)c(F)c1 (centres undefined)
NF-kB SEAP reporter activity (RAW-Dual [2]; [7]): 0.889
NF-kB SEAP reporter activity (RAW-Dual [2]; [8]): 1.09

CCCc1cc(=O)[nH]c(=S)[nH]1
NF-kB SEAP reporter activity (RAW-Dual [2]; [7]): 0.729
NF-kB SEAP reporter activity (RAW-Dual [2]; [8]): 1.05

CCCc1cc(=O)[nH]c(=S)[nH]1 (library stock concentration (final ~1000-fold dilution): 10 mM)
NF-kB SEAP reporter activity (RAW-Dual [1]; agonist: LPS (TLR4) 0.1 ug/mL): 1.55
NF-kB SEAP reporter activity (RAW-Dual [1]; [4]): 1.36
NF-kB SEAP reporter activity (RAW-Dual [1]; [5]): 1.76
NF-kB SEAP reporter activity (RAW-Dual [1]; [6]): 1.89

Cn1cnc(-c2cc3nccc(Oc4ccc(NC(=S)NC(=O)Cc5ccccc5)cc4F)c3s2)c1 (library stock concentration (final ~1000-fold dilution): 10 mM)
NF-kB SEAP reporter activity (RAW-Dual [1]; agonist: LPS (TLR4) 0.1 ug/mL): 0.614
NF-kB SEAP reporter activity (RAW-Dual [1]; [4]): 0.395
NF-kB SEAP reporter activity (RAW-Dual [1]; [5]): 0.125
NF-kB SEAP reporter activity (RAW-Dual [1]; [6]): 0.213

Cn1cnc(-c2cc3nccc(Oc4ccc(NC(=S)NC(=O)Cc5ccccc5)cc4F)c3s2)c1
NF-kB SEAP reporter activity (RAW-Dual [2]; [7]): 0.326
NF-kB SEAP reporter activity (RAW-Dual [2]; [8]): 0.555

Cl.Cl.c1cc(-c2cnn3cc(-c4ccc(OCCN5CCCCC5)cc4)cnc23)ccn1
NF-kB SEAP reporter activity (RAW-Dual [2]; [9]): 0.944
NF-kB SEAP reporter activity (RAW-Dual [2]; [10]): 1.2

Cl.Cl.c1cc(-c2cnn3cc(-c4ccc(OCCN5CCCCC5)cc4)cnc23)ccn1 (library stock concentration (final ~1000-fold dilution): 10 mM water)
NF-kB SEAP reporter activity (RAW-Dual [1]; agonist: LPS (TLR4) 0.1 ug/mL): 1.69
NF-kB SEAP reporter activity (RAW-Dual [1]; [4]): 0.252
NF-kB SEAP reporter activity (RAW-Dual [1]; [5]): 1.44
NF-kB SEAP reporter activity (RAW-Dual [1]; [6]): 1.92

CCC(=O)N1CCN(c2ccc(-n3c(=O)ccc4cnc5ccc(-c6cnc7ccccc7c6)cc5c43)cc2C(F)(F)F)CC1
NF-kB SEAP reporter activity (RAW-Dual [2]; [11]): 0.44
NF-kB SEAP reporter activity (RAW-Dual [2]; [12]): 1.51

CCC(=O)N1CCN(c2ccc(-n3c(=O)ccc4cnc5ccc(-c6cnc7ccccc7c6)cc5c43)cc2C(F)(F)F)CC1 (library stock concentration (final ~1000-fold dilution): 2 mM)
NF-kB SEAP reporter activity (RAW-Dual [1]; agonist: LPS (TLR4) 0.1 ug/mL): 1.55
NF-kB SEAP reporter activity (RAW-Dual [1]; [4]): 1.02
NF-kB SEAP reporter activity (RAW-Dual [1]; [5]): 0.421
NF-kB SEAP reporter activity (RAW-Dual [1]; [6]): 0.629

CCNC1(C(N)=O)CCN(c2ncnc3c2nc(-c2ccccc2Cl)n3-c2ccc(Cl)cc2)CC1.Cl
NF-kB SEAP reporter activity (RAW-Dual [2]; [11]): 0.57
NF-kB SEAP reporter activity (RAW-Dual [2]; [12]): 0.847

CCNC1(C(N)=O)CCN(c2ncnc3c2nc(-c2ccccc2Cl)n3-c2ccc(Cl)cc2)CC1.Cl (library stock concentration (final ~1000-fold dilution): 2 mM)
NF-kB SEAP reporter activity (RAW-Dual [1]; agonist: LPS (TLR4) 0.1 ug/mL): 0.587
NF-kB SEAP reporter activity (RAW-Dual [1]; [4]): 0.493
NF-kB SEAP reporter activity (RAW-Dual [1]; [5]): 0.537
NF-kB SEAP reporter activity (RAW-Dual [1]; [6]): 0.482

— the supplement of paper PMC10037445
